The values below come from the RNAGym collection of RNA variant scans (doi:10.1101/gad.245936.114).

This sample is rich in variants without activity.

To fix the notation:
B1: tRNA (parent)
chain: CUCUCGGUAGCCAAGUUGGUUUAAGGCGCAAGACUUUAAUUUAUCACUACGAAAUCUUGAGAUCGGGCGUUCGACUCGCCCCCGGGAGAUUUUUUCCUCGAGCAA

Variants of B1 are the subject of this data set. The experiment in a line: nonsense suppression (GFP-seq) (ratio to wild type); higher = more function; SUP4oc tRNA, yeast GFP reporter sort-seq. A digest of the protocol:
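Nonsense suppression (GFPSEQ) is the median GFP/RFP ratio of each sorting bin, weighted by the variant's estimated share of cells in that bin and expressed relative to the unmutated parent tRNA. Yeast strains carried genome-integrated variants of an ochre-suppressor tRNA from a library with ~3% random mutations, plus a galactose-driven GFP ochre reporter and RFP, and were grown in raffinose/galactose medium containing 80 mg/L adenine. Cells were sorted into GFP/RFP bins, each bin was Illumina-sequenced (phred ≥30), and variants were kept only with ≥100 reads and ≥30 cells.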
Turning to CUCCCGGUAGCCAAGUUGGUUUAAGGUGCAAGACUUUAAUUUAUCACUACGAAAUCUUGAGAUCGGGCGUUCGACUCGCCCCCGGGAGAUUUUUUCCUCGAGCAA, the nonsense suppression was determined as 0.792.

In the case of CUCUCGGUAGCCAAGUUGGUUUAAGGCGCAAGACUUUAAUUUAUCACUACGAAAUCUUGAGACCGGGCGUUCGACACGCCCCCGGGAAAUUUUUUCCUCGAGCAA, the nonsense suppression is ≤ 0.026.

CUCUCGGUAGCCAAGUUGGUUUCAGGCGCAAGACUUUAAUUUAUCACUACGAAAUCUUGAGAUCAGGCGUUCGACUCGCCCCCGGGAGAUUUUUUCCUCGAGCAA: the nonsense suppression was ≤ 0.026.

Take CUCUCGGUUGCCAAGUUGGUUUAAGGCGCAAGACUUUAAUUUAUCACUACGAAAUCUUGAGAUCGGGCGUUCGUCUCGCACCCGGGAGAUUUUUUCCUCGAGCAA: the nonsense suppression is ≤ 0.026.

As to CUCUCGGUAGCCAAGUUGGUUUAAUGCGCAAGACUUUAAUUUAUCACUACGAAAUCCUGAGAUCGGGCGUUCGACUCGCCCCCGGUAGAUUUUUUCCUCGAGCAA, the nonsense suppression was ≤ 0.026.

For CUCUCGGUAUCCAAGUUGGAUUAAGGCGCAAGACUUUAAUUUAUCACUACGAAUUCUUGAGAUCGGGCGUUCGACUCGCCCACGGGAGAUUUUUUCCUCGAGCAA, the nonsense suppression is ≤ 0.026.

With UUCUCGGUAGCCAAGUUGGUUUGAGGCGCAAGACUUUAAUUUAUCACUACGAAAUCUUGAGAUCGAGCGUUCGACUCGCCCUCGGGAGAUUUUUUCCUCGAGCAA, the nonsense suppression was ≤ 0.026.

Consider CUCUCGGUAGCCAAGUUGGUUUAAGGCGCAAGACUUUAAUUUAUCACUACGAAAUCUUGAGAUCGGGCGUUCGACUCGCCCCCGGGACUUUUUUUCCUCGAGCAA, for which the nonsense suppression was ≤ 0.026.

With CUCUCGGUAGCCAAGUUGGGUUAAGGCGGAAGACUUUAAUUUAUCACUACGAAAUCUUGAGAUCGGGCGUUCGACUCGCCCCCGGGAGAUUUUUUCCUCGAGCAA, the nonsense suppression is ≤ 0.026.

Take CUCUCUGUCGCCAAGUUGGUUUAAGGCGCAAGACGUUAAUUUAUCACUACGAAAUCUUGAGAUCAGGCGUUCGACUCGCCCCCGGGAGAUUUUUUCCUCGAGCAA: the nonsense suppression was ≤ 0.026.

Turning to CUCUCUGUAGCCGAGUUGGUUUAAGGCGCAAGACUUUAAUUUAUCACUACGAAAUCUUGAGAUCGGGCGUUUGACUCGCCCCCGGGAGAUUUUUUCCUCGAGCAA, the nonsense suppression is ≤ 0.026.

Turning to CUCUCGUUAGCCAAGAUGGUUUAAGGCGCAAGACUUUAAUUUAUCACUACGAAAUCUUGAGAUCGGGCGUUCGACUCGCCCCCGGGAGAUUUUUUCCUCGAGCAA, the nonsense suppression is ≤ 0.026.

With CUCUCGGUAGCCAAGUUGGCUUAAGGCGCAAGACUUUAAUUUAUCACUACGAAAUCUUGAGAUCGGGCGUACGACUCGCCCCCGGGAGAUUUUUUCCUCGAGCAA, the nonsense suppression is ≤ 0.026.

Take CUCUCGGUAGCCAAGUUGGUUUAAGGCGCAAGACUUUAAUUUAUCACUACGAAAUCUUGAGAUCGGGCGUUCGACUCGCCCGCGGGGGAUUUUUUCCUCGAGCAA: the nonsense suppression is ≤ 0.026.

With CUCUCUGUAGCCAAGUUGGUUUAAGGCGCAAGGCUUUAAUUUAUCACUACGAAAUCUUGAGAUCGGGCGUUCGACUCGCACCCGGGAGAUUUUUUCCUCGAGCAA, the nonsense suppression was ≤ 0.026.

Regarding CUCUCGGUAGCCAAGUUGGUUUAAGGCGCAAGACUUUAAUUUAUCACUACGAAAUCUUGACAUCGGGCGCUCGACUCGCCCCCGGGAGAUUUUUUCCUCGAGCAA, the nonsense suppression was ≤ 0.026.

As for CUCUCGGUAGCCAAGUUGUUUUAAUGCCGGAGACUUUAAUUUAUCACUACGAAAUCUUGAGAUCGGGCGUUCGACUCGCCCUCGGGAGAUUUUUUCCUCGAGCAA, the nonsense suppression is ≤ 0.026.

As for CUAUCGGUAGCUAAGUUGGUUUAAGGCGCAAGACUUUAAUUUAUCACUACGAAAUCUUGAGAUCCGGCGUUCGACUCGCCCCCGCGAGAUUUUUUCCUCGAGCAA, the nonsense suppression was ≤ 0.026.

Turning to CUCUCGGUCGCCAAGUUGGUUUAAGGCGGAAGACUUUAAUUUAUCACUACGAAAUCUUGAGAUCGGGCGUUCGACACGCCCCCGGGAGAUUUUUUCCUCGAGCAA, the nonsense suppression was ≤ 0.026.

In the case of CUCUCGGAAGCCAAGUUGGUUUAAGGCGCAAGACUUUAAUUUAUCACUACGAAAUCCUGAGAUCGGGCGUUCGACUCGCCCCCGGGAGAUUUUUUCCUCGAGCAA, the nonsense suppression is ≤ 0.026.

On to CUCUCGGUAGCCAAGUUGGGUUUAGCCGCUAUACUUUAAUUUAUCACUACGAAAUCUUGAGAUCGGGCCUUCGACUCGCCCCCGGGAGAUUUUUUCCUCGAGCAA, for which the nonsense suppression was ≤ 0.026.

Turning to CUCUCGGUACCCCAGUGGGAUUAAGGCGCAAGACUUUAAUUUAUCACUACGAAAUCUUGAGAUUGGGCGUUCGACUCACCCCCGGGAGAUUUUUUCCUCGAGCAA, the nonsense suppression was ≤ 0.026.

CUCUCGCUAUCCAAGUUGGUUUAAGGCGCAAGACUUUAAUUUAUCACUACGAAAUCUUGAGAUCGGGCGUUCGACUCGCCCCCGGGAGAUUUUUUCCUCGAGCAA: the nonsense suppression was ≤ 0.026.

On to CUCUCGGUAGCCAAGUUGGUUUGAGGCGCAAGACUUUAAUUUAUCACUACGAAAUCUUGAGAUCGGGCGUUCGACUCGCCCCCGGGACAUUUUUUCCUCGAGCAA, for which the nonsense suppression was ≤ 0.026.

As for CUCUCGGUAGCCGGGUUGGUUUAAGGCGCAAGACUUUAAUUUAUCACUACGAAAUCUUGGGAUCGGGCGGUCGACUCGCCCCCGGGAGAUUUUUUCCUCGAGCAA, the nonsense suppression was ≤ 0.026.

Regarding CUCUCGGAAGCCAAGUUGGUUUAAGGCGCAAGACUUUAAUUUAUCACUACGAAAUCUUGAGCUCGGGCGUUCGAAUCGCCCCCGGGAGAUUUUUUCCUCGAGCAA, the nonsense suppression is ≤ 0.026.

CUCACCGUAGCCAAGGUGGUUUAAGGCGCAAGACUUUAAUUUAUCACUACGAAACCUUGAGAUCGGGCGUUCGACUCGCCCCCGGGAGAUUUUUUCCUCGAGCAA: the nonsense suppression was ≤ 0.026.
